Among all 310,000 compounds or so, about 2,200 (0.71%) showed an effect of 50% or more. The effect is printed as a negative number. This is one part of the list.
What follows are molecules tested against human ether-à-go-go-related gene (hERG) potassium channel (human, UniProt Q12809) (assay: primary screen, population patch clamp on CHO cells stably expressing hERG).
Chain of human ether-à-go-go-related gene (hERG) potassium channel (Q12809 whole entry, looked up): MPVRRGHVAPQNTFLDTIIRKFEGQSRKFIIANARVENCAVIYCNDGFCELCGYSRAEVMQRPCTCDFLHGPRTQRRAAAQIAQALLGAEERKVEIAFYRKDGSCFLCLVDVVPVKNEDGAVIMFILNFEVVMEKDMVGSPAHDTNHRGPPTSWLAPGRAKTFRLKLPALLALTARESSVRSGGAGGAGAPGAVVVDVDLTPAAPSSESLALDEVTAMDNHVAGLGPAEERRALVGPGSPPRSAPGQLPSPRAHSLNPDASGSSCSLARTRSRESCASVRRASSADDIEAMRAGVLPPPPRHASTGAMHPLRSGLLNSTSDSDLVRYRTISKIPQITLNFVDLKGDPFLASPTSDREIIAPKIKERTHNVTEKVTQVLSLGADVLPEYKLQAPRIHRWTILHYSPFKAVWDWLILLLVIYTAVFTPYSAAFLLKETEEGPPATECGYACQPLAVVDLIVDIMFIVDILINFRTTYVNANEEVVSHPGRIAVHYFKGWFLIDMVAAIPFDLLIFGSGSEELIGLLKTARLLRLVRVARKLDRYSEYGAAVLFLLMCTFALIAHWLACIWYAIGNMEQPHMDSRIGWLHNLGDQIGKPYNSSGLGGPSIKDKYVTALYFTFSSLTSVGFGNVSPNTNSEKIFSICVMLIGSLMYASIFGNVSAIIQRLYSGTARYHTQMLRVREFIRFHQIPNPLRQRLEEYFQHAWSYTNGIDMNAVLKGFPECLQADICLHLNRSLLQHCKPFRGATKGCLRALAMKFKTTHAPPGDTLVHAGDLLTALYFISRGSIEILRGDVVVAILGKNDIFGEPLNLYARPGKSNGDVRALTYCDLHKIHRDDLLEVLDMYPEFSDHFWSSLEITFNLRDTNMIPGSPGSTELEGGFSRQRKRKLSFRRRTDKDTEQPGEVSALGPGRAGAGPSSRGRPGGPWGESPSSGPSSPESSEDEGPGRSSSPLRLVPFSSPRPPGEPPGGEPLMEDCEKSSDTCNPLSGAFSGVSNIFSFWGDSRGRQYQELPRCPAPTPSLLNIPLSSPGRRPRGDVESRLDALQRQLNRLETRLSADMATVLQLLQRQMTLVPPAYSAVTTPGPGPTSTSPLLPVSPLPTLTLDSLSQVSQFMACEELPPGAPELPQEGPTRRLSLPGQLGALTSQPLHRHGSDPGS

| SMILES | hERG current change (%, negative = inhibition) at 1uM [%] |
| --- | --- |
| Cl.O=C(O)C1CCN(Cc2ccccn2)CC1 | 13.4 |
| CC1CCN(S(=O)(=O)c2ccc(NC(=O)Cc3ccc(S(=O)(=O)N4CCOCC4)s3)cc2)CC1 | -2.89 |
| C/C(CC(=O)Nc1cccc(F)c1)=N\NC(=O)C(=O)NC1CCCCC1 | 11.3 |
| COCCn1c(SCc2ccc(OC)c(F)c2)nnc1-c1ccncc1 | 9.13 |
| COc1ccc(OC)c(NC(=O)CSc2nnc(CNC(=O)c3cccs3)o2)c1 | 5.55 |
| Cc1ccc(C(=O)NCCCN2CCOCC2)o1 | 22.1 |
| COCc1cc(=O)n2[nH]c(C)cc2n1 | 10.1 |
| CC(=O)c1c(OC(=O)c2ccccc2Br)ccc2c(C)cc(=O)oc12 | 0.622 |
| COc1ccccc1N(CC(=O)NCC1CCCO1)C(=O)CCC(=O)Nc1cc(C)on1 (stereo not drawn) | 11.3 |
| CCCCCOC(=O)C1C2C=CC3(CN(c4ccccc4C)C(=O)C13)O2 (stereo not drawn) | 17.3 |
| Cc1cc(NCc2ccccc2)n2ncc(-c3ccccc3)c2n1 | 4.22 |
| Cn1c(Cn2c(=O)sc3ccccc32)nnc1SCC(=O)NC1CCCC1 | 10.1 |
| Cc1cc(NC(=O)COc2coc(CN3CCN(c4ccccc4)CC3)cc2=O)no1 | -1.27 |
| COC(=O)C1=C(C)NC(C)=C(C(=O)OC)C1c1ccc2ccccc2n1 | 13.6 |
| Nc1nnc(/C=C/c2ccccc2Cl)s1 | 13.7 |
| COc1ccc(CCNC(=O)c2ccc(OC)c(OC)c2)cc1OC | 8.73 |
| COc1ccc(Cc2noc(CN3CCN(Cc4csc(C)n4)CC3)n2)cc1OC | 9.32 |
| CC(O)CCc1ccc(O)cc1 (stereo not drawn) | 8.47 |
| Cc1ccc(/C=N\NC(=O)Cn2nnc3ccccc32)o1 | 1.65 |
| O=C(Nc1cc(C(F)(F)F)ccc1N1CCCCC1)c1ccc(Br)o1 | 13.4 |
| COc1ccc(C(=O)NC(C)c2nnc(SCC(=O)NC3=NCCS3)n2C)cc1 (stereo not drawn) | 11.7 |
| COc1ccc(N2C(=O)/C(=C\c3ccco3)N=C2SCC(N)=O)cc1Cl | 13.5 |
| COC(=O)C(C(=O)OC)C(CC(=O)c1ccc(C)cc1)c1cc(OC)c(OC)c(OC)c1 (stereo not drawn) | 4.78 |

| SMILES | hERG current change (%, negative = inhibition) at 1uM [%] |
| --- | --- |
| CCN1C(=O)[C@@H]2[C@H](C1=O)[C@@H]1C(=O)Nc3ccccc3C(=O)N1[C@@H]2c1ccc(Br)cc1 | -17.7 |
| [Cl-].c1ccc(C[n+]2cccc(-c3ccccc3)c2)cc1 | -3.61 |
| O=C1N[C@@H](Cc2ccccc2)[C@@H](c2ccco2)O1 | 13.2 |
| CCn1c(NCc2ccco2)nc2ccccc21 | 10.6 |
| COc1ccc(C2=NN(C(=O)CCC(=O)O)C(c3ccc(F)cc3)C2)cc1 (stereo not drawn) | 15.9 |
| O=C(CCCN1C(=O)c2cccc3cccc(c23)C1=O)N1CCN(c2ncccn2)CC1 | 14.4 |
| Cc1ccccc1-c1nnc(-c2ccccc2)o1 | -0.417 |
| CCOCCCNC(=S)NNC(=O)CCn1nc(C)c(Br)c1C | 11.1 |
| COc1ccccc1N1CCN(C(c2cc3cc(C)ccc3[nH]c2=O)c2nnnn2C2CCCC2)CC1 (stereo not drawn) | -1.27 |
| CCOc1ccc(N2CC(C(=O)Nc3c(C)n(C)n(-c4ccccc4)c3=O)CC2=O)cc1 (stereo not drawn) | 17.3 |
| CN(CC(=O)NC1CCCC1)S(=O)(=O)c1cnc[nH]1 | 12.9 |
| S=C(NCCc1ccccc1)NC1CCCCCC1 | -1.53 |
| COC(=O)c1ccccc1COn1c(=O)c[n+]([O-])c2ccccc21 | 3.05 |
| Cc1nnc(SCc2nc3sc4c(c3c(=O)[nH]2)CCCC4)n(N)c1=O | 15.9 |
| COc1ccc(-c2cc(C(=O)Nc3cccnc3Cl)no2)cc1OC | 16.7 |
| Nc1nc(NC2CCCCC2)nc(NCCO)c1[N+](=O)[O-] | 7.41 |
| CC(C)(CN1CCNCC1)NS(=O)(=O)c1ccc(Cl)cc1 | 1.19 |
| Cc1onc(-c2c(F)cccc2Cl)c1C(=O)NC(=S)Nc1c(C)n(C)n(-c2ccccc2)c1=O | 10.6 |
| O=C(CCC1CCCC1)N=C1SC2CS(=O)(=O)CC2N1Cc1ccccc1 (stereo not drawn) | 14.9 |
| CCCCNC(=O)c1onc(CSc2nc3ccccc3[nH]2)c1C(=O)NCCCC | 6.57 |
| CC(NC(=O)COc1cccnc1[N+](=O)[O-])c1ccc(Cl)cc1 (stereo not drawn) | 8.12 |
| Cc1ccc(NS(=O)(=O)c2c(C)[nH]c(C)c2C(=O)N2CCCCC2)c(Cl)c1 | 8.09 |
